Results from PubChem BioAssay AID463173 (ICCB-Longwood Screening Facility, Harvard Medical School, 2010).
The campaign covered roughly 52,000 compounds. About 4,300 (8.3%) were called active. Cut-off read from the data, not from the text of the source: active = survival mostly below about 52% (no sharp cut-off); inactive = mostly above about 56%. The list shows a part of the results.

These compounds were tested on DeltatarO mutant (assay: growth inhibition of S. aureus wild type versus tarO mutant, primary screen, teichoic acid synthesis inhibitors, RN4220, OD600 (AID 463173)). Details: OD600, 18 h, hits give low values, screened at 18.75 µg/mL (by protocol).

Structure (SMILES) | survival
CN(C(=O)c1ccc2c(Cl)c3c(nc2c1)CCC3)c1ccccc1F | inactive: 118%
Cc1ccc(CNC(=O)c2nnc(Cc3ccc(Cl)cc3)o2)cc1 | inactive: 99%
CCN(CC)C(=O)Cn1c(=O)n(-c2ccccc2)c(=O)c2c3c(sc21)CCC3 | inactive: 97%
COc1ccccc1C(=O)Nc1ccc(C(=O)OCc2cc(=O)n3nc(C)sc3n2)cc1 | inactive: 98%
Cc1ccc(S(=O)(=O)c2cn(CC(=O)Nc3cccc(C)c3)c3cc4c(cc3c2=O)OCO4)cc1 | inactive: 61%
CCCn1c(N)nc2c1c(=O)[nH]c(=O)n2C | inactive: 71%
CC1CCC(C(=O)NC(C(=O)OCC(=O)c2ccc(Br)cc2)C(C)C)CC1 (configuration not stated) | inactive: 73%
Cc1ccc(/C=C/c2onc(C)c2S(=O)(=O)N2CCC(C(=O)Nc3ccc(Br)c(C)c3)CC2)cc1 | inactive: 74%
CNS(=O)(=O)c1cn(CC(=O)Nc2ccc(OC)cc2OC)cc1S(=O)(=O)NC | inactive: 98%
CCOc1ccc(Nc2oc(/C=C/c3cccc(OC)c3)nc2C#N)cc1 | inactive: 79%
O=C(CSc1nc2sc3c(c2c(=O)[nH]1)CCCC3)Nc1nc2c(s1)CCCC2 | inactive: 80%
CCCCCn1c(CCNC(=O)c2cccc(C)c2)nc2ccccc21 | active: 32%
Cc1ccc2c(c1)C1OCCC1C(c1cccs1)N2 (configuration not stated) | inactive: 94%
Cc1ccc(NC(=O)Cn2c(-c3cncs3)nc3ccccc32)c(Br)c1 | inactive: 63%
Cc1ccc(CNC(=O)CN2C(=O)C3(SCC(=O)N3c3ccc(F)cc3)c3ccccc32)cc1 (configuration not stated) | inactive: 77%
CC(=O)N1CCc2c(sc3c2c(=O)n(Cc2ccccc2)c(=O)n3Cc2cc(C)ccc2C)C1 | inactive: 74%
CC1CN(C(=O)N2CCC(C(=O)NCCCc3ccccc3)CC2)c2ccccc2O1 (configuration not stated) | inactive: 75%
Cc1ccc(OCCSc2nc3ccc(NC(=O)c4ccc(F)cc4)cc3s2)cc1 | inactive: 109%
CCOC(=O)C(CC)Sc1c(CC)cnc2c1c(=O)n(C)c(=O)n2C (configuration not stated) | inactive: 84%
Cc1cccc(C(C)C)c1NC(=O)C(NS(=O)(=O)c1cccc2nsnc12)c1ccccc1 (configuration not stated) | inactive: 77%
Fc1ccc(COC(CN2CCCCC2)CN2CCCCC2)cc1 | inactive: 76%
COc1ccc(CNC(=O)CCc2nc(-c3ccc(OC)cc3)no2)cc1 | inactive: 96%
Nc1nc2c(s1)CCCC2 | inactive: 102%

Structure (SMILES) | survival
CCc1ccc(CNC(=O)C2CCCN(S(=O)(=O)c3ccc4c(ccn4C)c3)C2)cc1 (configuration not stated) | inactive: 101%
CCSc1nc2c([nH]c3ccccc32)c(=O)n1-c1ccc(F)cc1 | inactive: 87%
Cc1cc(C)c2c(n1)sc1c(=O)n(-c3ccccc3C(F)(F)F)nnc12 | inactive: 133%
CC1(C)Cc2ccccc2C(NN=C2CCCCC2)=N1 | inactive: 98%
CCC(=O)N1CCc2cc(CNS(=O)(=O)c3cccs3)ccc21 | inactive: 73%
CCCCOc1ccc(CNC(=O)c2ccc3c(c2)N(C)C(=O)C2CCCCN32)cc1 (configuration not stated) | inactive: 74%
Cc1ccccc1CSc1ccc(-c2cccs2)nn1 | inactive: 123%
Cc1cc(C)n(-c2nc(C)c(C)c(=O)n2CC(=O)Nc2ccc(OC(F)(F)F)cc2)n1 | inactive: 90%
Cc1cccc(NC(=O)c2cc(S(=O)(=O)N3CCCCCC3)cn2C)c1C | inactive: 67%
Cc1ccc(NC(=O)Cn2cc(C(=O)C3CC3)c3ccccc32)cc1C | inactive: 86%
Cc1ccc(S(=O)(=O)NC(C)(C)CN2CCCCC2)cc1 | inactive: 96%
Cc1ccc(Cc2cn3cc(-c4ccc(F)cc4)nc3s2)cc1 | inactive: 141%
COc1ccc(-c2c(C)c3ccc(O)c(CN4CCCC4)c3oc2=O)cc1OC | inactive: 87%
COC(=O)CSc1nc2ccccc2n1CC(=O)N1C(C)CCCC1C (configuration not stated) | inactive: 87%
COc1cccc(-c2cn3ncsc3n2)c1 | inactive: 74%
O=C(/C=C/c1ccccc1Cl)N1CCC(c2nc3ccccc3o2)CC1 | inactive: 63%
CCOc1ccc(NC(=O)c2sc3nc4n(c(=O)c3c2C)CCC4)cc1 | inactive: 81%
Cc1ccccc1N1C(=O)c2ccccc2NC1c1ccncc1 (configuration not stated) | inactive: 93%
COC(=O)N1CCCc2cc(S(=O)(=O)NCc3ccccc3)ccc21 | inactive: 70%
COc1cc(NC(=O)CN2CCN(c3ccc(F)cc3)CC2)cc(OC)c1 | inactive: 97%
Cc1nn(CC(=O)NC2CCC(C)CC2)c(=O)c2c1sc1ccccc12 (configuration not stated) | inactive: 80%
Cc1ccc2oc(-c3ccc(NC(=O)CCC(=O)O)cc3)nc2c1 | inactive: 86%
Cc1ccc(NC(=O)CCc2c(C)nc3c(-c4ccc(F)cc4)c(C)nn3c2C)cc1F | inactive: 74%

Structure (SMILES) | survival
Cc1cc(C)c(Nc2ncnc3c2cnn3C)c(C)c1 | inactive: 80%
CCn1cc2nc(SCC(=O)Nc3cc(OC)cc(OC)c3)n(Cc3ccc(Cl)cc3)c(=O)c2n1 | inactive: 86%
Cc1cc(C)cc(NC(=O)CSc2nc3c(c(=O)[nH]2)CN(Cc2ccc(F)cc2)CC3)c1 | inactive: 74%
CCn1cc(C(=O)Nc2cccc(Cl)c2)c2cc(OC)c(OC)cc2c1=O | active: 46%
O=C(COc1ccccc1O)NCCN1CCOCC1 | inactive: 64%
CCCCN(CC)CCNC(=O)C1CCN(S(=O)(=O)c2cccc3nsnc23)CC1 | inactive: 103%
Cc1ccccc1COC(=O)c1nn(-c2ccccc2)nc1N | active: -1%
COc1ccccc1N1CCN(C(=O)Cn2c(=O)n3nc(-c4cccc(F)c4)nc3c3ccccc32)CC1 | inactive: 71%
CC(=O)c1ccc(N2CCN(S(=O)(=O)c3ccc(-c4coc(C)n4)cc3)CC2)cc1 | inactive: 94%
CC(C)(C)NC(=O)Cc1ccccc1 | inactive: 73%
CCOC(=O)c1cc2occc2n1Cc1c(F)cccc1Cl | inactive: 110%
Cc1cccc(C)c1NC(=O)c1ccc2c(c1)nnn2C1CCCC1 | active: -5%
CCOc1cc(-c2ccc(OC(=O)c3ccccc3Cl)c(OC)c2)cc(=O)c2c(C)oc(C)c12 | inactive: 69%
COc1ccc(-c2nn3c(=O)cc(CN4CCN(C(=O)/C=C/c5ccccc5)CC4)nc3s2)cc1 | inactive: 90%
COc1ccc(C2CC(=O)Nc3c2c(=O)[nH]c2nc4ccccc4n32)cc1 (configuration not stated) | inactive: 66%
Cc1ccc(-c2cc(C(=O)Oc3ccc(C#N)cc3)no2)cc1 | inactive: 97%
CCn1c(SCC(=O)Nc2ccccc2C(=O)OC)nc2ccsc2c1=O | inactive: 94%
CCC(=O)NNc1ncnc2c1cnn2-c1ccc(C)c(Cl)c1 | inactive: 72%
CCN(Cc1ccccc1)C(=O)Cn1c(=O)n(-c2ccccc2)c(=O)c2c1c1cc(C)ccc1n2C | inactive: 94%
Cc1nc2ccccc2c(=O)n1-c1ccc(NC(=O)c2ccccc2[N+](=O)[O-])cc1 | inactive: 69%
O=C(CSc1nc(=O)[nH]c2c1CCC2)NCc1ccccc1Cl | inactive: 88%
O=C(O)CCC(=O)NCc1ccccn1 | inactive: 82%
CCc1ccc(CSc2nc(-c3ccccc3F)nc3c2Cc2c(CO)cnc(C)c2O3)cc1 | inactive: 61%

Structure (SMILES) | survival
CCc1nn(CC(=O)N2CCN(c3ccc(OC)cc3)CC2)c(=O)c2cc3sccc3n12 | inactive: 74%
CC(CCc1ccccc1)NC(=O)Cn1ncc2c3ccccc3n(Cc3ccccc3F)c2c1=O (configuration not stated) | inactive: 92%
COc1ccc(-c2cnc(C)o2)cc1S(=O)(=O)Nc1ccc(NC(C)=O)cc1 | inactive: 74%
O=C(CSc1nccn1-c1cccc(Cl)c1)Nc1ccc2c(c1)OCO2 | inactive: 72%
CCN(C(=O)C1CCN(S(=O)(=O)c2cc(Br)cc3c2N(C(C)=O)CC3)CC1)c1cccc(C)c1 | inactive: 72%
O=C(CCn1c(=O)c2cccn2c2cccnc21)N1CCN(c2ccccc2)CC1 | inactive: 102%
Cn1c(=O)oc2cc(S(=O)(=O)CCC(=O)N3CCN(c4ccccc4F)CC3)ccc21 | inactive: 91%
Cc1cccc(CN2C(=O)c3ccccc3Sc3ccc(C(=O)NC4CCCCC4)cc32)c1 | inactive: 118%
O=C(Nc1ccc2nc(SCC(=O)N3CCOCC3)sc2c1)c1cccc(Br)c1 | active: 29%
Cc1cccc(CNC(=O)C2CCC(CNS(=O)(=O)c3ccc4c(c3)CCCC(=O)N4)CC2)c1 (configuration not stated) | inactive: 91%
COc1ccc(OC(=O)c2nc(SCc3ccccc3F)ncc2Cl)cc1 | inactive: 77%
Cc1ccc(NC(=O)Cn2c(=O)n(Cc3ccco3)c(=O)c3oc4ccccc4c32)cc1C | inactive: 76%
O=C(NC1CCCCCC1)C1COc2ccccc2O1 (configuration not stated) | inactive: 90%
CCCC(c1nnnn1CCC(C)C)N1CCC(C(N)=O)CC1 (configuration not stated) | inactive: 84%
COCCCNC(=O)c1ccc(-c2nc(CS(=O)(=O)c3ccc(C)cc3)c(C)o2)cc1 | inactive: 95%
Cc1oc(-c2ccc(C(=O)NCc3cccc(F)c3)cc2)nc1COc1ccccc1 | inactive: 87%
CCOC(=O)c1ccc(N2C(=O)c3n[nH]c(-c4ccco4)c3C2c2cccc(OC)c2)cc1 (configuration not stated) | inactive: 91%
COC(=O)c1ccc2c(=O)n(CCCCCC(=O)NCCc3ccc(Cl)cc3)c(=O)[nH]c2c1 | active: 52%
Cc1ccc(Cn2ccnc2SCC(=O)NCc2ccccc2Cl)cc1 | inactive: 94%
CCn1c(C(=O)N2CCC(C(=O)NCCc3ccc(C)cc3)CC2)cc2sccc21 | inactive: 58%
N#Cc1c(C(F)(F)F)cc(-c2ccc(F)cc2)nc1SCC(=O)Nc1ccccc1 | inactive: 72%
Cc1ccccc1NC(=O)CSc1nc2ccccc2c2nc(CCn3cncc3C)nn12 | inactive: 94%
COc1ccc(NC(=O)CCc2c(C)nn(-c3ccc(N4CCCCC4)nn3)c2C)cc1Cl | inactive: 87%
